# Measured values published in PubChem BioAssay AID761 (NMMLSC, 2007).
# Among all 190,000 compounds or so, about 400 (0.21%) were called active. Inconclusive results, whose numbers are uncertain, are shown with a selection of clear calls.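 How the source made its calls: active means percent activity GTP binding at least 20 points away from the 100% baseline, either down as inhibitor or up as activator; inconclusive means compound flagged as likely green fluorescent from well-wide comparison; inactive means the rest.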
# Target: Cell division control protein 42 homolog (Homo sapiens) (UniProt P60953)
# Assay: wildtype Cdc42 fluorescent GTP binding changes, either direction – biochemical, multiplex bead flow cytometry, Bodipy-GTP, primary screen (AID 761);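 further: median bead fluorescence of bound Bodipy-FL-GTP at 100 nM; 0% = excess unlabeled GTP control and 100% = no compound control; below 100% means less GTP binding so inhibitor and above means activator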
# Settings: GST-Cdc42 beads, at 10 µM, actives lie on both sides
# Chain of UniProt P60953 (P60953 whole entry, looked up): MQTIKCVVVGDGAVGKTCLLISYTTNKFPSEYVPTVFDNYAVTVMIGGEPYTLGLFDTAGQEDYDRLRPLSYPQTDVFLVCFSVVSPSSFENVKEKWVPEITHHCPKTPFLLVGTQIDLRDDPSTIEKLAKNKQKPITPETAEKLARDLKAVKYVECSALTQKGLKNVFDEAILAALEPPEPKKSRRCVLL
row,Structure (SMILES),percent activity (GTP binding)
1,CCCN1C(=O)/C(=C/C=C2\N(CC)c3ccccc3C2(C)C)SC1=S,inconclusive: 132%
2,COc1ccc(O)c(-c2cc(-c3cccc(Br)c3)n[nH]2)c1,inconclusive: 107%
3,O=C(CSCc1c(F)cccc1Cl)NCCSCc1ccco1,inconclusive: 95%
4,c1ccc(-c2csc(-n3cccn3)n2)cc1,inactive: 97%
5,O=C1OCC2=C1C(c1ccccc1)CC(=O)N2c1ccc(F)cc1 (stereo unspecified),inactive: 98%
6,CC1(C)Cc2c(sc3nc(-c4cc5ccccc5o4)n(N)c(=O)c23)CO1,inconclusive: 93%
7,Cc1onc(-c2c(Cl)cccc2Cl)c1C(N)=O,inconclusive: 107%
8,CSc1cccc(NC(=S)N2CCC(N(C)C3CCCC3)CC2)c1,inactive: 104%
9,Oc1ccc(C2=Nn3c(nnc3-c3ccco3)SC2)cc1O,active: 49%
10,CC(C)(C)Cc1nnc(NC(=O)Cc2cccs2)s1,inactive: 96%
11,OC1(C#CCCN2CCCCC2)c2ccccc2-c2ccccc21,inconclusive: 96%
12,CC1CC(=O)N(Cc2ccccc2)c2ccccc2N1C=O (stereo unspecified),inconclusive: 107%
13,CC(C)Cc1nn2c(=O)cc(O)nc2s1,inconclusive: 104%
14,Cc1ccc(C)c2sc(NC(=O)c3nc4ccccc4s3)nc12,inactive: 98%
15,O=C(CC1Nc2ccccc2NC1=O)c1ccccc1 (stereo unspecified),inconclusive: 121%
16,CCCCCCCNc1nc(Cl)nc(NCCO)n1,inactive: 92%
17,COc1ccc(NC(=O)CC2C(=O)N(c3cccc(OC)c3)C(=O)N2C(C)C)cc1 (stereo unspecified),inactive: 100%
18,CC1CCCCC1NC(=O)/C=C/c1nc2ccccc2s1 (stereo unspecified),inconclusive: 89%
19,COc1cccc(C2=CC(c3ccccc3)n3ncnc3N2)c1 (stereo unspecified),inconclusive: 108%
20,N=C1SCC(=O)N1c1ncc(Cc2ccc(F)cc2)s1,inactive: 93%
21,CCCSc1nnc(CN2CCOCC2)n1C,inconclusive: 105%
22,O=[N+]([O-])c1ccc2ccn(C3OCC(O)C(O)C3O)c2c1 (stereo unspecified),inactive: 98%
23,CC1CCN(C(C(=O)O)c2ccccc2)CC1 (stereo unspecified),inactive: 98%
24,S=C(NCc1ccc2c(c1)OCO2)NC1CC1,inactive: 99%

row,Structure (SMILES),percent activity (GTP binding)
1,Cc1ccc(-c2ccc(/C=C3/NC(=O)NC3=O)o2)cc1[N+](=O)[O-],inconclusive: 92%
2,COc1cc([N+](=O)[O-])ccc1N=Nc1c(N)[nH]n(-c2ccccc2)c1=O,active: 78%
3,O=C(NCc1cccs1)c1cc(-c2ccccn2)nc2ccc(Br)cc12,inactive: 98%
4,O=C(COC(=O)c1cccc(C(=O)OCC(=O)NC2CC2)n1)NC1CC1,inactive: 96%
5,CCCC/C(O)=C1\C(=O)CC(C)(C)CC1=Nc1ccc(N)cc1,inactive: 92%
6,COC(=O)C1CC(c2ccc(Cl)cc2)=NO1 (stereo unspecified),inactive: 102%
7,COCCNC(=O)NC(=O)COC(=O)C1(c2ccc(Cl)cc2)CC1,inconclusive: 95%
8,N#CCCCCN1c2cccc3cccc(c23)S1(=O)=O,inconclusive: 96%
9,O=C(Nc1ccc(-c2ccc([N+](=O)[O-])cc2)cc1)c1ccccc1F,inconclusive: 102%
10,Cc1ccc(Oc2ncccc2/C=N/OCc2ccc(Cl)c(Cl)c2)cc1,inconclusive: 90%
11,CC(C)n1c(C(O)c2ccccc2)nc2ccccc21 (stereo unspecified),inconclusive: 102%
12,Nc1cc(C(F)(F)F)ccc1-n1cccc1,inactive: 98%
13,Cc1onc(-c2c(Cl)cccc2Cl)c1C(=O)NCC1CCCO1 (stereo unspecified),inconclusive: 109%
14,CCCNC(=O)Cn1nc(C(F)(F)F)c2c1CCCC2,inconclusive: 103%
15,CC1(C)Cc2cccc(OCC(O)CNCc3ccccn3)c2O1 (stereo unspecified),inconclusive: 103%
16,CCC(C)c1ccc(NC(=O)CSc2nncn2N)cc1 (stereo unspecified),inconclusive: 109%
17,COc1ccccc1N(CC(=O)Nc1cc(C)on1)S(=O)(=O)c1ccc(Cl)cc1,inconclusive: 93%
18,Cc1ccc(S(=O)(=O)c2c(C)cc(C)nc2Cl)c(C)c1,inconclusive: 94%
19,COc1ccc(CNC(=O)C2CCC(CNc3nc(=S)[nH]c4ccccc34)CC2)cc1 (stereo unspecified),inactive: 90%
20,CN(C)CCN(C(=O)c1ccc(N2C(=O)CCC2=O)cc1)c1nc2cc3c(cc2s1)OCCO3,inactive: 96%
21,CCOc1nc(NC(=O)NS(=O)(=O)c2ccccc2F)nc(-c2ccccc2)n1,inconclusive: 93%
22,O=C(OCc1cn(-c2ccc(Cl)c(Cl)c2)nn1)c1ccccc1,inconclusive: 89%
23,Clc1ccccc1CSc1nnc(/C=C/c2ccccc2)o1,inconclusive: 95%
24,N#Cc1c(C(F)(F)F)cc(-c2ccc(Cl)cc2)[nH]c1=O,active: 76%

row,Structure (SMILES),percent activity (GTP binding)
1,Nc1cccc(S(=O)(=O)c2cccc(N)c2)c1,inconclusive: 40%
2,COC(=O)c1sc2ncccc2c1OCc1ccccc1Cl,inconclusive: 95%
3,S=c1[nH]nc(-c2ccco2)n1-c1ccc(Cl)cc1,inactive: 82%
4,CCc1sc(N2C(=O)C3C4CCC(C4=C(C)C)C3C2=O)nc1-c1ccccc1 (stereo unspecified),inconclusive: 95%
5,Cc1cccc(-n2c(SCc3cc(=O)n4c(C)cccc4n3)nc3[nH]ncc3c2=O)c1,inconclusive: 91%
6,O=C(N/N=C/c1sc(=O)n(-c2ccccc2)c1Cl)c1ccncc1,inconclusive: 98%
7,COc1ccc(NC(=S)NCCc2c[nH]c3ccc(OC)cc23)c(OC)c1,inconclusive: 104%
8,Cc1cc(NC(=O)CSc2nc(-c3ccccc3Cl)nc3c2c(=O)n(C)c(=O)n3C)no1,inactive: 94%
9,O=C(NC(=S)NCCCN1CCOCC1)c1cccc2ccccc12,inactive: 105%
10,COC(=O)CN(C(=O)CSc1nnc(-c2cccc(OC)c2)o1)c1ccc(OC)cc1,inconclusive: 107%
11,Cc1ccc2[nH]c3nc(SCCN4CCOCC4)nnc3c2c1,inconclusive: 92%
12,O=C(COC(=O)CCc1c[nH]c2ccccc12)Nc1cc([N+](=O)[O-])ccc1Cl,inconclusive: 93%
13,Cc1ccc(S(=O)(=O)N(C)C)cc1NC(=O)COC(=O)C1COc2ccccc2O1 (stereo unspecified),inconclusive: 91%
14,O=C(C(c1ccccc1)c1ccccc1)N1CCN(Cc2ccncc2)CC1,inconclusive: 109%
15,CC(/C=N/NC(=O)c1sc(N)nc1C)=C\c1ccccc1,inactive: 96%
16,O=C(CSc1cccc[n+]1[O-])c1cc(Cl)ccc1Cl,inactive: 98%
17,CCS(=O)(=O)N1CCCC(C(=O)NCC2CCCO2)C1 (stereo unspecified),inconclusive: 106%
18,CC(C)CN(C)C(=O)CC1C(=O)NCCN1C (stereo unspecified),inconclusive: 96%
19,CC1CCCC(C)N1CCCNC(=O)Cn1cc2c(n1)CCCC2 (stereo unspecified),inconclusive: 106%
20,COc1ccc(C(=O)NCc2nnc(SCC(=O)Nc3ccccc3OC)n2C)cc1,inconclusive: 95%
21,Cc1c(C(=O)NCc2cccnc2)oc2ccc(S(=O)(=O)N3CCC4(CC3)OCCO4)cc12,inconclusive: 104%
22,CCCCN(CCCC)C(=O)CCS(=O)(=O)c1ccc2c(c1)n(C)c(=O)c(=O)n2C,inconclusive: 110%
23,C/C(=N\O)c1ccc2c3ccccc3n(C)c2c1,inconclusive: 102%
24,Cc1cc(/C=C(\C#N)C(=O)NCc2ccco2)c(C)n1-c1ccc(C(=O)O)cc1,inactive: 93%

row,Structure (SMILES),percent activity (GTP binding)
1,CC(C)=C1SC(N2CCN(c3cccc(C(F)(F)F)c3)CC2)=NC1=O,inconclusive: 93%
2,COc1ccc(-c2cc(-c3ccc(C)cc3)nc(SCc3nnc(-c4ccccc4)o3)c2C#N)cc1OC,inactive: 104%
3,COc1ccc(N2CCN(C(=O)CSc3nnc4c5cc(C)ccc5n(C)c4n3)CC2)cc1,inconclusive: 88%
4,COc1cc2c(cc1OC)CC(=O)NC=C2,inactive: 95%
5,COc1cc2[nH]c3c(N4CCN(c5ccc(Cl)cc5)CC4)ncnc3c2cc1OC,inconclusive: 109%
6,Fc1cccc(CN2CCN(c3nc4nonc4nc3NC3CC3)CC2)c1,inconclusive: 93%
7,Cc1ccc(SCC(=O)Nc2ccc(F)cc2[N+](=O)[O-])cc1C,inconclusive: 98%
8,Cn1c(SCc2ccc(F)cc2)nnc1-c1cccs1,inconclusive: 102%
9,COc1cccc(N2CCN(C(=O)c3cccnc3)CC2)c1,inactive: 99%
10,COc1cc(NC(=S)NCC2CCCO2)c(OC)cc1Cl (stereo unspecified),inconclusive: 110%
11,Cc1c(Nc2ccc(C=O)cc2)c(=O)n(-c2ccccc2)n1C,inactive: 95%
12,CC(=O)Nc1ccc(NC(=O)c2ccccc2CCc2ccccc2)cc1,inactive: 100%
13,CCCCNS(=O)(=O)c1ccc2c(c1)oc(=O)n2CC(=O)OCC,inconclusive: 105%
14,CCc1cccc(CC)c1-n1c(SCC(=O)c2c(N)n(C)c(=O)n(C)c2=O)nnc1-c1cccnc1,inconclusive: 101%
15,CCn1c(SCC(=O)c2ccc(Cl)cc2)nnc1-c1ccoc1C,inconclusive: 94%
16,Cc1ccc(Nc2nnc(SCC(=O)NCCN3C(=O)CSC3=O)s2)cc1,inactive: 104%
17,COCCNC(=O)CSc1nc2ccccc2c(=O)n1CC1CCCO1 (stereo unspecified),inconclusive: 105%
18,Cc1cc(OCc2ccc(C(=O)n3cccn3)o2)ccc1Cl,inconclusive: 94%
19,COCc1c(C(=O)OCc2c(C)noc2C)oc2ccccc12,inconclusive: 96%
20,O=C(Cc1ccc(Cl)cc1)c1c[nH]c(C(=O)NCCCn2ccnc2)c1,inconclusive: 94%
21,O=C(c1ccc(-c2ccccc2)cc1)N1CCN(Cc2ccccn2)CC1,inconclusive: 100%
22,CCOCCCNC(=O)/C(C#N)=C/c1ccc([N+](=O)[O-])o1,inactive: 100%
23,Cn1c(=O)c2cc(S(=O)(=O)NCCC(=O)NCc3ccccc3Cl)ccc2n(C)c1=O,active: 68%
24,CCOC(=O)C(CC)/C(C)=N\NC(=O)c1cccc(C)c1 (stereo unspecified),inactive: 92%
